One assay deals with HSkMC. The assay is described as follows: cytotoxicity call (relative viability < 0.9). The settings on record: 10 µM.
For a further assay, the system named is HepG2. The assay is described as follows: cytotoxicity call (relative viability < 0.9). The settings on record: 10 µM.
The next assay deals with S. aureus RN4220. The assay is described as follows: growth inhibition call (relative growth <= 0.2). The note with it: 50 µM.

Each structure is given as a SMILES string. This is one part of the list.

`COc1cc(C[C@H]2CO[C@H](c3ccc(O)c(OC)c3)[C@@H]2CO[C@H]2O[C@@H](CO)[C@@H](O)[C@@H](O)[C@@H]2O)ccc1O`: the cytotoxicity call in the assay on HSkMC was “inactive”. Moreover, the cytotoxicity call with HepG2 is “active”. In addition, the growth inhibition call in the assay with S. aureus RN4220 is “inactive”.
For the molecule `C(=N\c1ccccc1)/c1ccc(Oc2ccccc2)cc1`, the cytotoxicity call in the assay on HSkMC and in the assay on HepG2 was “inactive” throughout. In the assay on S. aureus RN4220, the growth inhibition call was “inactive”.
For the molecule `C[C@@H]1CN([C@H](C)CO)C(=O)Cc2cc(NC(=O)c3ccncc3)ccc2O[C@@H]1CN(C)Cc1ccc(C(=O)O)cc1`, the cytotoxicity call in the assay with HSkMC and with HepG2 was “inactive” each time. Further, in the assay with S. aureus RN4220, the growth inhibition call is “inactive”.
Consider `CC(C)(ON=C(C(=O)NC1C(=O)N2C(C(=O)[O-])=C(C[n+]3ccccc3)CSC12)c1csc(N)n1)C(=O)O` (stereo not given), for which the cytotoxicity call in the assay with HSkMC and in the assay on HepG2 was “inactive” in each case. Also, the growth inhibition call with S. aureus RN4220 is “inactive”.
As to `C[C@@H]1CN([C@H](C)CO)C(=O)c2cc(NC(=O)Cc3cn(C)c4ccccc34)ccc2O[C@H]1CN(C)C(=O)Nc1ccc(C(F)(F)F)cc1`, the cytotoxicity call in the assay with HSkMC is “inactive”. Further, the cytotoxicity call with HepG2 was “active”. In addition, in the assay with S. aureus RN4220, the growth inhibition call is “inactive”.
On to `Cc1ccc(S(=O)(=O)N2C[C@@H](O)COC[C@@H]3O[C@@H](CC(=O)N[C@@H]4CCN(Cc5ccccc5)C4)CC[C@H]32)cc1`, for which the cytotoxicity call with HSkMC and with HepG2 was “inactive” each time. The growth inhibition call in the assay on S. aureus RN4220 is “inactive”.
For the molecule `C[C@@H]1CN([C@@H](C)CO)C(=O)c2c(c3ccccc3n2C)-c2ccccc2CO[C@@H]1CN(C)Cc1ccc(-c2ccccc2)cc1`, the cytotoxicity call in the assay on HSkMC is “active”. For the same molecule, the cytotoxicity call in the assay on HepG2 was “inactive”. Moreover, the growth inhibition call with S. aureus RN4220 is “inactive”.
With `CO[C@@H]1CN(C)C(=O)c2ccc(NC(=O)Nc3ccccc3Cl)cc2OC[C@@H](C)N(Cc2ccccc2C(=O)O)C[C@H]1C`, the cytotoxicity call with HSkMC and with HepG2 was “inactive” in each case. In addition, in the assay on S. aureus RN4220, the growth inhibition call was “inactive”.
Take `C[C@H](CO)N1C[C@H](C)[C@H](CN(C)S(=O)(=O)c2cn(C)cn2)Oc2ccc(NC(=O)C3CCCCC3)cc2CC1=O`: the cytotoxicity call with HSkMC and in the assay on HepG2 was “inactive” each time. Further, in the assay with S. aureus RN4220, the growth inhibition call is “inactive”.
As to `CC12CCC(=O)C=C1CCC1C2C(=O)CC2(C)C1CCC2(O)C(=O)CO` (stereo not given), the cytotoxicity call with HSkMC and with HepG2 was “inactive” each time. Besides, the growth inhibition call in the assay with S. aureus RN4220 is “inactive”.
Consider `C[C@H]1CN([C@@H](C)CO)C(=O)c2cc(NC(=O)CCC(F)(F)F)ccc2O[C@@H]1CN(C)Cc1ccc(Oc2ccccc2)cc1`, for which the cytotoxicity call with HSkMC and in the assay on HepG2 was “inactive” throughout. Besides, in the assay with S. aureus RN4220, the growth inhibition call was “inactive”.
As for `CO[C@@H]1CN(C)C(=O)c2ccc(NC(=O)Nc3cccc(Cl)c3)cc2OC[C@H](C)N(C(=O)Nc2c(C)noc2C)C[C@@H]1C`, the cytotoxicity call with HSkMC and with HepG2 was “inactive” in each case. In the assay on S. aureus RN4220, the growth inhibition call is “inactive”.
In the case of `COc1ccc(NC(=O)N(C)C[C@H]2OCCCC[C@@H](C)Oc3ccc(NS(=O)(=O)c4ccc(C)cc4)cc3C(=O)N([C@@H](C)CO)C[C@@H]2C)cc1`, the cytotoxicity call in the assay with HSkMC and with HepG2 was “inactive” each time. Further, in the assay on S. aureus RN4220, the growth inhibition call is “inactive”.
`C[C@H](CO)N1C[C@H](C)[C@H](CN(C)Cc2ccc(Cl)c(Cl)c2)Oc2ccc(NC(=O)Nc3ccc(F)cc3)cc2CC1=O`: the cytotoxicity call in the assay on HSkMC and with HepG2 was “active” in each case. Besides, the growth inhibition call in the assay on S. aureus RN4220 was “inactive”.
Turning to `COc1cccc(-c2cnc3c(c2)C(=O)N([C@H](C)CO)C[C@H](C)[C@H](CN(C)S(=O)(=O)c2ccc(C#N)cc2)O3)c1`, the cytotoxicity call in the assay with HSkMC and in the assay on HepG2 was “inactive” throughout. In addition, the growth inhibition call in the assay on S. aureus RN4220 was “inactive”.
For the molecule `C[C@@H]1CN([C@H](C)CO)C(=O)c2cc(NC(=O)Nc3cccc4ccccc34)ccc2O[C@@H](C)CCCCO[C@@H]1CN(C)C(=O)c1ccccc1`, the cytotoxicity call in the assay with HSkMC and in the assay with HepG2 was “inactive” throughout. For the same molecule, the growth inhibition call in the assay on S. aureus RN4220 is “inactive”.
In the case of `COc1ccccc1NC(=O)N(C)C[C@H]1Oc2ncc(C#CC(C)C)cc2C(=O)N([C@H](C)CO)C[C@H]1C`, the cytotoxicity call in the assay on HSkMC and with HepG2 was “inactive” in each case. Further, the growth inhibition call in the assay on S. aureus RN4220 was “inactive”.
For `O=c1cc(CN2CC[C@H](N3CCOCC3)[C@H](CCCO)C2)nc2c(O)cccn12`, the cytotoxicity call in the assay on HSkMC and with HepG2 was “inactive” throughout. The growth inhibition call with S. aureus RN4220 is “inactive”.
Regarding `C[C@@H]1CN([C@@H](C)CO)C(=O)Cc2cc(NS(=O)(=O)c3cn(C)cn3)ccc2O[C@H]1CN(C)Cc1ccc2c(c1)OCO2`, the cytotoxicity call in the assay on HSkMC and in the assay with HepG2 was “inactive” in each case. In addition, the growth inhibition call in the assay with S. aureus RN4220 was “inactive”.
On to `COc1cccc(CNC(=O)c2cc3c(c(-c4cccc(-c5ccc(C#N)cc5)c4)n2)[C@@H](CCO)N([S@](=O)C(C)(C)C)C3)c1`, for which, in the assay with HSkMC, the cytotoxicity call is “active”. For the same molecule, the cytotoxicity call in the assay with HepG2 was “inactive”. Besides, in the assay with S. aureus RN4220, the growth inhibition call was “inactive”.
For `COc1ccc(S(=O)(=O)Nc2ccc3c(c2)OC[C@@H](C)N(C(=O)NC(C)C)C[C@@H](C)[C@H](OC)CN(C)C3=O)cc1`, the cytotoxicity call in the assay with HSkMC and in the assay with HepG2 was “inactive” throughout. For the same molecule, the growth inhibition call with S. aureus RN4220 is “inactive”.
With `CC(C)N1C[C@@H](CN(C)Cc2ccc(Cl)cc2)Oc2c(cccc2-c2nnc(-c3ccncc3)o2)C1=O`, the cytotoxicity call in the assay with HSkMC and with HepG2 was “inactive” in each case. In the assay on S. aureus RN4220, the growth inhibition call is “inactive”.
Take `O=C(O)CCCCCCC(=O)O`: the cytotoxicity call in the assay with HSkMC and in the assay with HepG2 was “inactive” throughout. Also, the growth inhibition call with S. aureus RN4220 is “inactive”.
For the molecule `C=CCSCC1Nc2cc(Cl)c(S(N)(=O)=O)cc2S(=O)(=O)N1` (stereo not given), the cytotoxicity call with HSkMC and in the assay with HepG2 was “inactive” throughout. The growth inhibition call with S. aureus RN4220 was “inactive”.
Take `O=C(C[C@@H]1CC[C@@H]2[C@H](COC[C@H](O)CN2C(=O)c2cccnc2)O1)NCC1CC1`: the cytotoxicity call with HSkMC and in the assay with HepG2 was “inactive” in each case. Besides, in the assay with S. aureus RN4220, the growth inhibition call was “inactive”.
For `CC(C)(C)[S@](=O)N1Cc2cc(C(=O)NCCc3ccncc3)nc(-c3cccc(-c4ccccc4)c3)c2[C@@H]1CCO`, the cytotoxicity call with HSkMC and in the assay on HepG2 was “inactive” throughout. Further, in the assay with S. aureus RN4220, the growth inhibition call is “inactive”.
For `COc1ccc(NC(=O)N(C)C[C@H]2OCCCC[C@H](C)Oc3ccc(NC(=O)Nc4c(C)noc4C)cc3C(=O)N([C@@H](C)CO)C[C@@H]2C)cc1`, the cytotoxicity call in the assay on HSkMC and in the assay on HepG2 was “inactive” throughout. Moreover, in the assay with S. aureus RN4220, the growth inhibition call is “inactive”.
Consider `C[C@@H]1CCCCO[C@@H](CN(C)Cc2ccc(Cl)c(Cl)c2)[C@@H](C)CN([C@H](C)CO)C(=O)c2cc(NC(=O)CCCCCC(=O)Nc3ccccc3N)ccc2O1`, for which the cytotoxicity call in the assay on HSkMC and in the assay with HepG2 was “inactive” throughout. Also, in the assay with S. aureus RN4220, the growth inhibition call was “inactive”.
`C[C@@H]1CCCCO[C@H](CN(C)C(=O)Nc2ccc(F)cc2)[C@@H](C)CN([C@H](C)CO)C(=O)c2cc(NS(=O)(=O)c3ccc(F)cc3)ccc2O1`: the cytotoxicity call in the assay on HSkMC and with HepG2 was “inactive” throughout. The growth inhibition call in the assay on S. aureus RN4220 was “inactive”.
Regarding `C[C@H]1CN([C@@H](C)CO)S(=O)(=O)c2ccc(C#CCC3CCCC3)cc2O[C@H]1CN(C)C(=O)c1cnccn1`, the cytotoxicity call in the assay with HSkMC and in the assay with HepG2 was “inactive” each time. The growth inhibition call in the assay on S. aureus RN4220 is “inactive”.
On to `C[C@@H]1CN([C@@H](C)CO)C(=O)c2cc(NC(=O)Nc3ccc(C(F)(F)F)cc3)ccc2O[C@@H](C)CCCCO[C@@H]1CN(C)S(=O)(=O)c1ccccc1`, for which the cytotoxicity call in the assay on HSkMC and in the assay on HepG2 was “inactive” in each case. Further, in the assay on S. aureus RN4220, the growth inhibition call was “inactive”.
Take `COc1ccc(S(=O)(=O)N(C)C[C@H]2Oc3cc(C#CC4CCCC4)ccc3S(=O)(=O)N([C@H](C)CO)C[C@H]2C)cc1`: the cytotoxicity call in the assay on HSkMC and in the assay with HepG2 was “inactive” each time. The growth inhibition call in the assay with S. aureus RN4220 was “inactive”.
Turning to `C[C@H](CO)N1C[C@H](C)[C@H](CN(C)C(=O)Nc2ccc(F)cc2)Oc2ncc(C#CCN(C)C)cc2C1=O`, the cytotoxicity call in the assay on HSkMC and in the assay on HepG2 was “inactive” throughout. Besides, the growth inhibition call in the assay with S. aureus RN4220 was “inactive”.
As to `CC(C)CC#Cc1cnc2c(c1)C(=O)N([C@H](C)CO)C[C@@H](C)[C@H](CN(C)S(=O)(=O)c1cn(C)cn1)O2`, the cytotoxicity call in the assay on HSkMC (human skeletal muscle cells) and in the assay on HepG2 was “inactive” in each case. Further, in the assay on S. aureus RN4220, the growth inhibition call is “inactive”.
Turning to `COc1ccc(COC[C@]23NC(=O)N[C@H](c4ccccc4O2)[C@H]3COC(=O)NCCCCCC(=O)NO)cc1`, the cytotoxicity call with HSkMC and in the assay on HepG2 was “inactive” in each case. Besides, the growth inhibition call with S. aureus RN4220 is “inactive”.

Values taken from the antibiotic and cytotoxicity screens of Wong et al. (2023).
